# The campaign covered roughly 420,000 compounds. About 64,000 (15%) were called active. This list was built around the results that the source calls inconclusive (neither active nor inactive); the mix of calls is not that of the screen. The call rests on the fitted dose curve; in most records, active means well fitted inhibition curve with a large enough effect; inconclusive means small, poorly fitted or top-dose-only effect; inactive means flat fitted curve, though single readings scatter. Potencies of inconclusive entries are left out as doubtful fits.
# Assay: qHTS for Inhibitors of human tyrosyl-DNA phosphodiesterase 1 (TDP1): qHTS in cells in absence of CPT; further: nearly all actives have a fitted effect of over 55% in size
# Conditions: DT40 Tdp1-/- hTDP1 cells, no CPT, ATP luminescence, 48 h; activity change, negative = growth inhibition: at 46.2 µM (top of the series) unless noted
# Method in brief: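 Cells were dispensed at 400 per well, compounds added by pin tool, plates incubated ≥48 hr at 37 °C, then CellTiter-Glo added for 30 min at room temperature before luminescence reading. Line: DT40 Tdp1-/- complemented with hTDP1; camptothecin omitted.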
# On the % scale 0 is the no-effect control and ±100 the full control effect; potency means the concentration at half of the fitted maximal effect; tags describe the fitted curve by direction and shape.
SMILES,Potency,"activity change, negative = growth inhibition"
CN1c2ccc(C=O)c3c(C=O)ccc(c23)N(C)C1(C)C,active: 7.31 µM,
Cc1cccc(NC(=O)N2CCc3ccccc3C2)c1C,,inactive: 1.52%
Cc1cc(C)nc(N2CCCC(C(=O)NC(C)CCc3ccco3)C2)n1 (stereo unspecified),,inconclusive: -32.7% [inhibitor]
COc1ccccc1C1CCN(c2cc(O)ccc2[N+](=O)[O-])CC1,"inconclusive [inhibitor, single point]",
COc1ccc(C2(Nc3cccc(F)c3)C(=O)c3ccccc3C2=O)cc1,,inactive: 5.13%
COc1cc2c(cc1OC)C1=NC(=O)CN1C(SCc1ccccc1C)=N2,active: 10.3 µM,
Cc1ccc(-n2nc3c(=O)n(CCCC(=O)NCC(C)c4ccccc4)nc(C)c3c2C)cc1 (stereo unspecified),active: 14.6 µM,
CC1(C)CC(=O)C(N=Nc2ccc3ncsc3c2)=C(O)C1,,inactive: -18.1%
COc1ccc(-c2coc3c(C(=O)Nc4ccc(OC)nc4)cccc23)c(C)c1,active: 20.6 µM,
COc1ccc(C2(C)NC(=O)N(CC(=O)Nc3ccc(-c4nc5ccc(C)cc5s4)cc3)C2=O)cc1 (stereo unspecified),"inconclusive [inhibitor, single point]",
O=C(COC(=O)c1ccccc1)NCC1COc2ccccc2O1 (stereo unspecified),,inactive: -0.659%
CCCCn1c(-c2sccc2C)n[nH]c1=S,"inconclusive [inhibitor, single point]",
Cc1ccc(-c2cc(C(=O)Nc3ccc(S(=O)(=O)N4CC(C)OC(C)C4)cc3)[nH]n2)c(O)c1 (stereo unspecified),"inconclusive [inhibitor, partial curve]",
C[C@@H]1CN([C@@H](C)CO)S(=O)(=O)c2ccc(Br)cc2O[C@H]1CN(C)C(=O)C1CCC1,active: 16.4 µM,
C=CC[C@@H](Cc1ccc(F)cc1)C(=O)OC[C@@H]1CCCN1C(=O)[C@H](CC=C)CC(=O)N[C@H](CO)Cc1ccccc1,active: 18.4 µM,
O=C(NC1CCCC1)C1C(c2ccc(C(F)(F)F)cc2)=Nc2ccccc2N1C(=O)c1cccc2ccccc12 (stereo unspecified),"inconclusive [inhibitor, single point]",
Nc1nn2cc(-c3ccccc3)nc2c2ccccc12,"inconclusive [inhibitor, full curve, poor fit]",
Cc1ccc(Cn2nnc3c(=O)[nH]c(C4CCCN(C(=O)Nc5ccc(F)cc5F)C4)nc32)cc1 (stereo unspecified),,inactive: -23.5%
CC(=O)c1ccc(N2CCCCCC2)c(F)c1,"inconclusive [inhibitor, single point]",
O=C(c1ccco1)N1CCC2(CC1)CCN(c1ccncc1)CC2,active: 20.6 µM,
COc1ccc(NC(=O)CCN2CCN(Cc3ccccc3)CC2)c(OC)c1,"inconclusive [inhibitor, single point]",
O=C(NCc1ccncc1)c1ccccc1Nc1ccc(SC(F)F)cc1,"inconclusive [inhibitor, single point]",
COc1ccc(N/N=C(\C#N)C(=N)N2CCCCC2)cc1,"inconclusive [inhibitor, partial curve]",

SMILES,Potency,"activity change, negative = growth inhibition"
Fc1cccc(Nc2ncnc3c2cnn3-c2ccccc2)c1,active: 16.4 µM,
COc1ccc(C)cc1NC(=O)C(OC(=O)Cn1cnc2c1c(=O)n(C)c(=O)n2C)c1ccccc1 (stereo unspecified),,inactive: 3.52%
Cc1cc2c(OCC(O)CNCc3ccco3)cccc2[nH]1 (stereo unspecified),,inactive: 16.3%
CCC(C)c1ccccc1OCCCCN1CCCC1 (stereo unspecified),"inconclusive [inhibitor, single point]",
COc1ccc(N(C(=O)c2snc(C(N)=O)c2N)C(C(=O)NC2CCCCC2)c2ccc(C)o2)cc1 (stereo unspecified),active: 16.4 µM,
Cc1ccccc1OCC(=O)Nc1ccc(N2CCN(C)CC2)c(Cl)c1,active: 14.6 µM,
O=S(=O)(c1ccc(Cl)cc1)c1nc(-c2cccs2)oc1SCc1ccc(F)cc1,"inconclusive [inhibitor, single point]",
O=C(Nc1ccc(Cl)cc1)NC1CCCc2ccccc21 (stereo unspecified),"inconclusive [inhibitor, single point]",
Nc1ncnc2c1ncn2[C@@H]1O[C@H](CNCc2ccccc2)[C@@H](O)[C@H]1O,,inactive: -19.9%
Cc1noc(C)c1-c1ccc(C(=O)Nc2ccccc2)c2occc12,"inconclusive [inhibitor, single point]",
O=[N+]([O-])c1cc(C(F)(F)F)ccc1NCCc1c[nH]c2ccccc12,"inconclusive [inhibitor, single point]",
COCCSc1ccccc1C(=O)Nc1ccc([N+](=O)[O-])cc1OC,active: 23.1 µM,
COc1cccc(N2CC(C(=O)NCc3n[nH]c(=O)c4ccccc34)CC2=O)c1 (stereo unspecified),,inactive: -16.6%
COc1cc(-c2nnc(COC(=O)c3ccc(C)o3)o2)cc(OC)c1OC,"inconclusive [inhibitor, single point]",
COc1ccc([C@H]2CC(=O)C=C(c3ccc(C(F)(F)F)c(C(F)(F)F)c3)C2)cc1OC,"inconclusive [inhibitor, single point]",
CCNC(=O)c1c(NC(=O)c2nc(SCC)ncc2Cl)sc2c1CCCC2,"inconclusive [inhibitor, full curve]",
COCCn1c(-c2ccc(OC)cc2)cnc1SCC(=O)Nc1ccc(OC)cc1OC,"inconclusive [inhibitor, partial curve]",
CCn1c(C)nc2cc(S(=O)(=O)N3CCCC3)ccc21,"inconclusive [inhibitor, partial curve]",
O=C(COC(=O)CCc1c[nH]c2ccccc12)Nc1ccccc1C(F)(F)F,,inactive: -6.2%
CCn1c(SCC(=O)NC2CCCCC2)nc2c(c1=O)SC(C)C2 (stereo unspecified),"inconclusive [inhibitor, single point]",
COc1ccc(N2CCN(c3ccc(C(N)=O)cc3[N+](=O)[O-])CC2)cc1,"inconclusive [inhibitor, partial curve, poor fit]",
O=C(CCc1ccccc1)Nc1cc(S(=O)(=O)N2CCOCC2)ccc1N1CCCC1,,inactive: -1.02%
COc1ccc(OC)c(NC(=O)C2Cc3ccccc3CN2S(=O)(=O)c2ccc(F)cc2)c1 (stereo unspecified),"inconclusive [inhibitor, partial curve, poor fit]",
